Laboratory results: article PMC10516938, “Conformational dynamics of cohesin/Scc2 loading complex are regulated by Smc3 acetylation and ATP binding” (Nature Communications, 2023)
Residue numbers refer to the chain shown, from its start. In names and notes the source's numbering stands. These are yes or no findings as the source states them, for the method shown. In cells and extracts the contact can be indirect. Some binding calls cover weakened binding; strength is not graded here.

B1: Scc2 N886C (protein, UniProt Q04002 1-1493)
chain: MSYPGKDKNIPGRIIEALEDLPLSYLVPKDGLAALVNAPMRVSLPFDKTIFTSADDGRDVNINVLGTANSTTSSIKNEAEKERLVFKRPSNFTSSANSVDYVPTNFLEGLSPLAQSVLSTHKGLNDSINIEKKSEIVSRPEAKHKLESVTSNAGNLSFNDNSSNKKTKTSTGVTMTQANLAEQYLNDLKNILDIVGFDQNSAEIGNIEYWLQLPNKKFVLTTNCLTKLQMTIKNITDNPQLSNSIEITWLLRLLDVMVCNIKFSKSSLKMGLDDSMLRYIALLSTIVLFNIFLLGKNDSNLHRESYIMEPVNFLSDLIESLKILTIEYGSLKIEFDTFQEALELLPKYIRNGPFLDDNVTAKLVYIFSDLLMNNDIEATTNIQFQSFWDNVKRISSDILVSLFGSFDQQRGFIIEELLSHIEKLPTKRIQKKLRKVGNQNIYITDFTFTLMSMLENINCYSFCNQMKDIAPENIDLLKNEYKKQEEFLFNIVEHINDTILERFFKNPSALRYVIDNFVQDLLLLISSPQWPVTEKILSSLLKRLLSVYSPSMQVSANIETICLQLIGNIGSTIFDIKCSTRDHEDNNLIKMINYPETLPHFFKSFEECIAYNETIKCRRSATRFLWNLRLGTILILEEYTKDAKEQIITVDNELKKILEQIKDGGLGPELENREADFSTIKLDYFSILHAFELLNLYDPYLKLILSLLAKDKIKLRSTAIKCLSMLASKDKVILSNPMVKETIHRRLNDSSASVKDAILDLVSINSSYFEFYQQINNNYNDDSIMVRKHVLRINEKMYDETNDIVTKVYVIARILMKIEDEEDNIIDMARLILLNRWILKVHEVLDQPEKLKEISSSVLLVMSRVAIMNEKCSQLFDLFLNFYLLCKEAHSKEAYDKITHVLTILTDFLVQKIVELNSDDTNEKNSIVDKQNFLNLLAKFADSTVSFLTKDHITALYPYMVSDEKSDFHYYILQVFRCTFEKLANFKQKFLYDLETTLLSRLPKMNVREIDEAMPLIWSVATHRHDTARVAKACSSCLSHLHPYINKANNEEAAIVVDGKLQRLIYLSTGFARFCFPKPSNDKIAFLQEGETLYEHITKCLLVLSKDKITHVIRRVAVKNLTKLCGNHPKLFNSRHVLHLLDKEFQSDQLDIKLVILESLYDLFLLEERKSVRNTGVNSTLSSNSILKKKLLKTNRVEFANDGVCSALATRFLDNILQLCLLRDLKNSLVAIRLLKLILKFGYTNPSHSIPTVIALFASTSQYIRHVAYELLEDLFEKYETLVFSSLSRGVTKAIHYSIHTDEKYYYKHDHFLSLLEKLCGTGKKNGPKFFKVLKRIMQSYLDDITDLTSTNSSVQKSIFVLCTNISNITFVSQYDLVSLLKTIDLTTDRLKEVIMDEIGDNVSSLSVSEEKLSGIILIQLSLQDLGTYLLHLYGLRDDVLLLDIVEESELKNKQLPAKKPDISKFSAQLENIEQYSSNGKLLTYFRKHVKDT
B2: Scc2 R830C (protein, UniProt Q04002 1-1493)
chain: B1 chain with R830C, C886N

Molecular target: T1, Smc3 M74C (S. cerevisiae) (UniProt P47037)
T1 sequence: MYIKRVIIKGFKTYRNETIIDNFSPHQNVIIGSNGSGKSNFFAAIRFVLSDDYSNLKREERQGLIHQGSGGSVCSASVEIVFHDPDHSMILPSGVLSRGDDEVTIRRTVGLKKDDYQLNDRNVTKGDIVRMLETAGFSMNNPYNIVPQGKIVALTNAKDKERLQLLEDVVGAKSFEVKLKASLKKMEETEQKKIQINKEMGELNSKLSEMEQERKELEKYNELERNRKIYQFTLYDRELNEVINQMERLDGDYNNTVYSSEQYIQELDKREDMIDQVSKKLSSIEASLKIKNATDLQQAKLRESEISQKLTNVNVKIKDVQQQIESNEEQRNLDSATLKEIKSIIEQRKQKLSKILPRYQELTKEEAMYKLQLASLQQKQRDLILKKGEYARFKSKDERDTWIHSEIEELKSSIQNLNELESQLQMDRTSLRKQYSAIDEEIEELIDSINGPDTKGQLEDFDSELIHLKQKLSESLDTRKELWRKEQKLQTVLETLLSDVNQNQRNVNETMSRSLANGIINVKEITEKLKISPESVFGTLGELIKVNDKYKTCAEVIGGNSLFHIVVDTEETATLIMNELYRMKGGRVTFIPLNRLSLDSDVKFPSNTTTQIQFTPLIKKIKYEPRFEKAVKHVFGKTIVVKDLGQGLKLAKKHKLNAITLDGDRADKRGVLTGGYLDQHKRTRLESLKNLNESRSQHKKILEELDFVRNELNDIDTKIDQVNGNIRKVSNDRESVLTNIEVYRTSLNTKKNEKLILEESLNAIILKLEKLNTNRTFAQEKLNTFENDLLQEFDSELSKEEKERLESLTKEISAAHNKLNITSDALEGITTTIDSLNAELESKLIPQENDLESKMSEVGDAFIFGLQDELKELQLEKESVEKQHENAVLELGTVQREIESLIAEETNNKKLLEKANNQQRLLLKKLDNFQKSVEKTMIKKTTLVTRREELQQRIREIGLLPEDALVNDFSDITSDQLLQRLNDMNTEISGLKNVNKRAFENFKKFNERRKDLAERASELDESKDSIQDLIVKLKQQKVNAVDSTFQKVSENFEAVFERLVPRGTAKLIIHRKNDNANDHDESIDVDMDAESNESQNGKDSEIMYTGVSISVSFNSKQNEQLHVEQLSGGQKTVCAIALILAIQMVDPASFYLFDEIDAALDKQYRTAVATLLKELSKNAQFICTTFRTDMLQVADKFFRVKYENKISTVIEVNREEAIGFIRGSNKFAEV
Test: cross-linking; in vivo BMOE cross-link of cysteine pairs in exponentially grown yeast cells (on ice, 6 min); Scc1-PK immunoprecipitated, western blot

| Binder | binding |
| --- | --- |
| B1 | binds |
| B2 | no binding |
